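1) Cells in 96-well plates. 2) Compound, 48 h, 5 concentrations. 3) Linear interpolation between surrounding doses. 4) Unreached endpoint = highest concentration. GI50: concentration for 50% inhibition of growth. TGI is the concentration that stops growth completely.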
System: NCI-H322M lung
Test: NCI tumour cell line growth inhibition, 48 h

Compound	GI50 [µM]	TGI [µM]
C#C[C@]1(O)CC[C@H]2[C@@H]3CC=C4c5sc(Nc6cc(Cl)ccn6)nc5CC[C@]4(C)[C@H]3CC[C@@]21C	2.59	> 20.1
O=C(CN1CCOCC1)NNc1ncnc2ccccc12	16.5	30.3
O=C(Nc1cccc(C(F)(F)F)c1)c1cc(-c2ccc(F)cc2F)ccc1O	2.76	9.53

Reference: PubChem BioAssay (NCI)
